US20030180714A1 (Genentech, published 2003)

B1: hGH F176Y (ligand)
chain: not shown
notes: mature
B2: hGH T175S (ligand)
chain: not shown
notes: mature
B3: hGH P61A (ligand)
chain: not shown
notes: mature
B4: hGH R64K (ligand)
chain: not shown
notes: mature
B5: hGH P48A (ligand)
chain: not shown
notes: mature
B6: hGH S62A (ligand)
chain: not shown
notes: mature
B7: hGH R178K (ligand)
chain: not shown
notes: mature

Assays:
[1] = target: T1, anti-hGH monoclonal antibody 3F6.B1.4B1; assay: homolog shotgun scan, anti-hGH sort
T1 construct: also called anti-hGH antibody

[2] = target: T1, anti-hGH monoclonal antibody 3F6.B1.4B1; assay: Ser shotgun scan, anti-hGH sort

| Binder | (wt/mut)antibody [1] | (wt/Ser)antibody [2] |
| --- | --- | --- |
| B1 | 1.08 |  |
| B2 | 0.5 | 0.45 |
| B3 | 0.43 |  |
| B4 | 1.16 |  |
| B5 | 0.56 |  |
| B6 | 1.04 |  |
| B7 | 2.12 |  |
